Laboratory results reported in the supplement of paper PMC12632987.
In all, about 2,300 sequences were measured (“median log2 fold change of GCK-ALFA target abundance (FLAG IP / Myc IP barcode read proportion)”: median about 0.095, lowest 2% from about -0.47 on). The list shows a part of the results.

B1: LC3A_free_46_2352 (protein)
chain: VEAKIEIDLLADDKEKLEKAVEEIIKKIKEIAKKYGLEVEINYEISKLEDGSYYAKIEITLKGEDLEDVKKAVNELINEIEEIAEKYGVSAVISYEIEDV
B2: LC3A_28_938 (protein)
chain: MTTEEDNERALEEAREAAERGEPVVVTLTVKGTDTEEDVENLIETMREIAEILKDVKGAAIVVDVEAGVPQEFIDKIADTGEEIEKKYPNINVIIALDED
B3: LC3A_3_1880 (protein)
chain: MEEARAATLAALKAAGQSEETIAAAERLFDLLAARGWEEAAETLIAELLELLGLPSELVLDFIEDVLETLETEDLSEEELIEEIERLARLARNEGEIEEL
B4: LC3A_free_8_2526 (protein)
chain: KNQALATAASAIIDEAEEKIVALLKEKGMSELDILEAELLLGSIIAEVISAVDKSIEDILKIIREGFEEIVEELSEVKEEVTEIMEEALKKIEEKAKELS
B5: LC3A_28_1052 (protein)
chain: SHIDEQIEKALKEAEEAKAKGEEALIELHIGKDANEEDVEKVLETIEKIAEITKDLPSVTIIVDVDNPNKEEVTKKIDEVGEELAKKYPNVTVIIALSEE
B6: LC3A_free_39_2193 (protein)
chain: SAAETEKAKAELLALAAEAGEEAKKLAEEIIKLIGEDLEKLKKLLEALKKAKEAGVDVLEVLKEALELAKELKKQGKSKEEIFEEVLELIEDAINLIPID
B7: LC3A_3_1533 (protein)
chain: MEEKIEEALERLREAGASEETIEAFERAFELLKERGYEEALETLIEEMEELIDAPDEILLWFAEEVLELIETSDLNEEELIEEIKRIARIAKNESEIEEL
B8: LC3A_59_2035 (protein)
chain: SAEAEAAAARVRERGPSVDVVAEVFREVLEKNGLDPELARDLVAALVAVLVEAGLITAEEGAAIRAEADAAIDRLTDVDELVSELRVIILDALLKKNELE
B9: LC3A_23_614 (protein)
chain: TWRITLIADLITEEEEVEAAIERARAAIAALLAEHADVILEARVEVEVEKLEDGRYFLSIRVTIVTNASREEAEALREALEAALDEALPGAVISSEVEEL
B10: LC3A_28_693 (protein)
chain: SAIDKQIAAARAEADAAIAAGEEATLTITVTADTTQADVDRIMAAIEEIAARMAASAKLNIIIDVEAGVPQEHLDRLADFGDALAARYPNVNIIIALDED
B11: LC3A_free_39_2279 (protein)
chain: SSEELEEVLKRLEELASTLSPEGQELLRRLVEIFENDLEALRRLAEALERAKAEGADMLEILRRALEIAERLKAEGKSLEEIGEEVIEEIEDMINLIPLD
B12: LC3A_28_988 (protein)
chain: SEDRERAERFLAEAREAAARGEARTLVLEVSKNATQEDIEYIVEVLREAARLLAGVPGASIVVDLESGVKQEHIDKLADAAEEIEEEYPNVTVIIALDED
B13: LC3A_13_343 (protein)
chain: MIKIEAETAEELLKKSKEALKANPGSTLEITVTVKDEEEADAVAEALKEIIDEAIKYGSKLNITLKGKRDLVLYTAVEVGSHIAEKIGKADVNVETVEEE
B14: LC3A_28_1112 (protein)
chain: SEIDKNLEKALKEAKEAAEKGEPVVVTITVKATDTQEDIDKIIEALYEIAEILKDVKDAAIIIDVDGKLPQEHLDKLADAAEEIEEKYPNITVIIALDEE
B15: LC3A_28_826 (protein)
chain: SAVEERIAAFREAAEAVKAAGEPGTLTLTIKSTDTLEEVEKIAEALLEEAEKLKDVPNVSIVIDLDGKISQEKLDILTDTAEKIEKKYPNISVIIALPEE
B16: LC3A_17_571 (protein)
chain: SAETEALVKKAVAALKKAEAFAAKIDAAAAKEVAALLKEVEKAAKTKSDLEIAKTIAEAMDKVANILDSLEGKDPDEASHLAMEMEGVAIEAESLALKLE
B17: LC3A_3_1485 (protein)
chain: MEELLEEARKVLKERGASEEQIEAVLKDIKEILELGYEETVKEFIELLKEHPDLSPEQIVAAAGTILDKVKEEDLTEEEAVEYTRKIMEDVAEIEELEEE
B18: LC3A_free_39_2182 (protein)
chain: SAEELEETERRLLELAAEEGEEARRVAERLLELVEGNLELVRLVLEGAERVRREGGDVLEMLRDLLEAVEEARAAGLSEEELLERLREIIEDHLNLIPLD
B19: LC3A_free_39_2187 (protein)
chain: SSSETEKYIEEALELAEEEGEETKELAEEIIEIVGKELDYAKELLELLKELKKEGVDLKEALEEALRLAKELKEQGKSKEEIAKEVLELLRDKINLIPID

Biological target: MAP1LC3A, Q9H492
Assay: median log2 fold change of GCK-ALFA target abundance (FLAG IP / Myc IP barcode read proportion) (log2 ratio); each designed protein is fused to an ALFA-tag nanobody in HEK293 cells to bring the named protein to FLAG-tagged glucokinase (GCK); Myc marks an untargeted standard; higher = target protein stabilised (more abundant)
Conditions: target protein: 3xFLAG-MCP-GCK-ALFA reporter; HEK293 landing pad (RPLP)
Summary of the method: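 HEK293 landing-pad cells received a recombined binder library fused to the ALFA nanobody and were induced with 2 μg mL^−1 doxycycline, then transfected with a plasmid encoding a FLAG-tagged target and a Myc-tagged standard. Lysates were collected after 48 h for anti-FLAG and anti-Myc immunoprecipitation, and the circular RNA barcodes were reverse transcribed, amplified and sequenced. Target abundance for each binder is the median log2 ratio of FLAG to Myc barcode read proportions. Barcodes had to reach a proportion of at least 10^−7 in both replicates, each binder needed at least 3 barcodes per replicate, a pseudocount of 10^−6 was applied, and the two replicates were pooled.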

Binder	median log2 fold change
B1	0.204
B2	-0.0104
B3	-0.067
B4	-0.0167
B5	-0.553
B6	0.242
B7	-0.129
B8	0.256
B9	-0.0837
B10	0.211
B11	0.0995
B12	0.15
B13	0.032
B14	0.0117
B15	0.348
B16	0.185
B17	0.278
B18	0.164
B19	-0.0445
